1 protein from FireProtDB (doi:10.1016/0022-2836(81)90253-9) can be followed below.

For this data set the following is noted: Sus scrofa, Thermal, DSC, transition: 3, reversible: yes, whole UniProt chain shown.
Where [1] appears, read: pH 5.9, sodium cacodylate 5 mM, NaCl 100 mM.
The mark [2] stands for this setting: pH 6.5, sodium phosphate 5 mM, NaCl 100 mM.
The mark [3] stands for this setting: pH 7.1, sodium phosphate 5 mM, NaCl 10 mM.
Where [4] appears, read: pH 7.1, sodium phosphate 5 mM, NaCl 100 mM.
[5] abbreviates: pH 7.5, sodium phosphate 5 mM, NaCl 100 mM.

Values joined by “and” are separate entries in the source; they are usually repeats but may differ in a detail not shown here. Identical values can stand only once.

B1: Pepsin A wild type, P00791 (protein)
chain: MKWLLLLSLVVLSECLVKVPLVRKKSLRQNLIKNGKLKDFLKTHKHNPASKYFPEAAALIGDEPLENYLDTEYFGTIGIGTPAQDFTVIFDTGSSNLWVPSVYCSSLACSDHNQFNPDDSSTFEATSQELSITYGTGSMTGILGYDTVQVGGISDTNQIFGLSETEPGSFLYYAPFDGILGLAYPSISASGATPVFDNLWDQGLVSQDLFSVYLSSNDDSGSVVLLGGIDSSYYTGSLNWVPVSVEGYWQITLDSITMDGETIACSGGCQAIVDTGTSLLTGPTSAIANIQSDIGASENSDGEMVISCSSIDSLPDIVFTINGVQYPLSPSAYILQDDDSCTSGFEGMDVPTSSGELWILGDVFIRQYYTVFDRANNKVGLAPVA
As to B1, the Tm – broadly, the temperature at which the thermal transition is half complete – under setting [1] turned out to be 64 °C; the Tm (pH 5.9, sodium cacodylate 5 mM) was 62 °C and 64 °C; the melting temperature (Tm) (pH 6.5, sodium phosphate 5 mM) is 50 °C and 55 °C; the Tm under setting [5] is 60 °C. The “unfolding enthalpy (calorimetric)” value under setting [1] came out at 100 kcal/mol; the “unfolding enthalpy (calorimetric)” value (pH 5.9, sodium cacodylate 5 mM) is 167 kcal/mol and 102 kcal/mol; the “unfolding enthalpy (calorimetric)” value under setting [2] is 120 kcal/mol and 104 kcal/mol; the “unfolding enthalpy (calorimetric)” value (pH 6.5, sodium phosphate 5 mM) is 130 kcal/mol and 83 kcal/mol; the “unfolding enthalpy (calorimetric)” value under setting [3] is 99 kcal/mol and 87 kcal/mol; the “unfolding enthalpy (calorimetric)” value under setting [4] is 97 kcal/mol. In addition, the “unfolding enthalpy (calorimetric)” value is 106 kcal/mol and 74 kcal/mol (pH 7.1, sodium phosphate 5 mM); 92 kcal/mol under setting [5]. The “unfolding enthalpy (van 't Hoff)” value reads like this: under setting [1], 55 kcal/mol; (pH 5.9, sodium cacodylate 5 mM) 105 kcal/mol and 55 kcal/mol; under setting [2], 71 kcal/mol and 55 kcal/mol; (pH 6.5, sodium phosphate 5 mM) 80 kcal/mol and 45 kcal/mol; under setting [3], 65 kcal/mol and 50 kcal/mol; under setting [4], 47 kcal/mol. Moreover, the “unfolding enthalpy (van 't Hoff)” value is 70 kcal/mol and 46 kcal/mol (pH 7.1, sodium phosphate 5 mM); 46 kcal/mol under setting [5].
